# Test results: PubChem BioAssay AID588342 (National Center for Advancing Translational Sciences (NCATS), 2011)
# The campaign covered roughly 360,000 compounds. About 25,000 (6.9%) were called active. The shares of active, inactive and inconclusive entries below differ from those in the screen. Calls follow the shape of the dose curve; as a rule, active = well fitted inhibition curve with a large enough effect; inconclusive = small, poorly fitted or top-dose-only effect; inactive = flat fitted curve, though single readings scatter. Potencies beside an inconclusive call are fits to weak or partial responses and may not hold up.
# Target: Luciferin 4-monooxygenase (Photinus pyralis) (UniProt P08659)
# Assay: qHTS profiling assay for firefly luciferase inhibitor/activator using purifed enzyme and Km concentrations of substrates (counterscreen for miR-21 project); also: nearly all actives have a fitted effect of over 55% in size
# Details: purified FLuc, luminescence inhibition; series mostly up to 57.5 µM
# In short: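 Biochemical qHTS of compounds, final roughly 60 µM downward over six points, against 10 nM purified firefly luciferase using Km concentrations of substrates (10 uM D-luciferin, 10 uM ATP) in Tris acetate pH 7.5 buffer; luminescence output.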
# Potency is read from the fitted curve at half-maximal effect; tags tell the direction and shape of the fitted curve.
# Chain of UniProt P08659 (P08659 whole entry, looked up): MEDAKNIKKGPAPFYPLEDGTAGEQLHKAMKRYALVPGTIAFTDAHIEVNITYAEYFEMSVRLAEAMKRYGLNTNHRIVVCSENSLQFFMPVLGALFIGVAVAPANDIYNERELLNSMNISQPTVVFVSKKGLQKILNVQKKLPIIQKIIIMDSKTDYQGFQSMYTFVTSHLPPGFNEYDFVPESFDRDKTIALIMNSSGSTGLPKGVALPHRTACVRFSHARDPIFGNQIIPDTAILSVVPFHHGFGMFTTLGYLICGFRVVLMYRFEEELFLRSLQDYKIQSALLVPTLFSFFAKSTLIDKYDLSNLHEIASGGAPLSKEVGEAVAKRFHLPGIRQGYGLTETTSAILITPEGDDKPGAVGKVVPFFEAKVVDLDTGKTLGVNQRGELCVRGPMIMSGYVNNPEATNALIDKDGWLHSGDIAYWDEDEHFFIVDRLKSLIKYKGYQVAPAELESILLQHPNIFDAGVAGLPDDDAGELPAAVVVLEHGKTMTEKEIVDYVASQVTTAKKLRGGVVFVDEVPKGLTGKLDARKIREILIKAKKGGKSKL
row,SMILES,Potency
1,Nc1nn2cc(-c3ccc(Br)cc3)nc2c2ccccc12,active: 1.69 µM
2,CCn1nc(C)c(Br)c1-c1nc(-c2ccc(C)cc2)no1,active: 15.1 µM
3,COc1ccc(-c2nc3sc(CCNC(=O)c4ccc(C(C)(C)C)cc4)c(C)n3n2)cc1,active: 4.78 µM
4,COc1ccc(Nc2cc(C)c3cc([N+](=O)[O-])ccc3n2)cc1,active: 16.9 µM
5,COc1ccc(NC(=O)Cc2ccc(NC(=O)N3CCCCc4ccccc43)cc2)c(OC)c1,"inconclusive: 10.7 µM [inhibitor, partial curve]"
6,O=C(Cc1cccs1)N1CCN(c2nc(-c3ccc(Cl)cc3)cs2)CC1,"inconclusive: 37.9 µM [inhibitor, partial curve, poor fit]"
7,O=C(Nc1cccc(Cl)c1)c1ccc2c(c1)SC1=NS(=O)(=O)CCN12,inactive
8,CC1=NN(c2ccccc2)C(=O)/C1=C/c1cn(C)c2ccccc12,active: 6.01 µM
9,O=C(N/N=C/c1cccc2ccccc12)c1cc2ccccc2o1,"inconclusive: 7.57 µM [inhibitor, partial curve, poor fit]"
10,O=C1Nc2ccc(S(=O)(=O)NCC3CCCO3)c3cccc1c23 (configuration not stated),inactive
11,O=C(COc1ccc(N2C(=O)c3ccccc3C2=O)cc1)c1ccccc1,inactive
12,COc1ccc(/C=N/NC(=S)NC2CCS(=O)(=O)C2)cc1OC (configuration not stated),"inconclusive: 16.9 µM [inhibitor, partial curve]"
13,c1ccc(CSc2nnc(SCc3ccccn3)s2)nc1,"inconclusive: 21.3 µM [inhibitor, single point]"
14,CCc1ccccc1NC(=S)/N=C(\N)Nc1nc(C)c2cc(C)ccc2n1,inactive
15,CC(=O)c1cn(CCOc2ccccc2C)c2ccccc12,inactive
16,Cc1cc(C)cc(NC(=S)Nc2ccccn2)c1,"inconclusive: 13.5 µM [inhibitor, partial curve]"
17,COC(=O)CSc1[nH]c2ccc(F)cc2c1[N+](=O)[O-],inactive
18,COC(=O)c1cccc(NC(=O)C2COc3ccccc3O2)c1 (configuration not stated),active: 16.9 µM
19,CCNc1nc(N)c(C(=O)C23CC4CC(CC(C4)C2)C3)s1,"inconclusive: 37.9 µM [inhibitor, partial curve, poor fit]"
20,COC(=O)[C@@H]1C[C@H]2CC[C@H](O)C[C@H]2N1Cc1ccc(N2CCN(C)CC2)cc1,inactive
21,CCOC(=O)c1sc(NC(=O)Nc2ccc(Cl)cc2)cc1C,active: 6.75 µM
22,Cn1cc(CCNCc2cn[nH]c2-c2ccc(-c3ccccc3)cc2)cn1,"inconclusive: 37.9 µM [inhibitor, partial curve, poor fit]"
